Assay results reported in patent US5393740A, “Neurotensin Hexapeptides” (Tsumura & Co., priority 1991, dated 1995).
At least one peptide structure holds a part that was inferred or is arguable (an end, a ring closure or a residue). Some entries share one result that the patent states for a list of compounds. Where a SMILES comes first, the peptide text is derived from it. [ ]: non-standard residue; d: D form. The star is where a group is joined. Pentanoyl(5-guanidino) = NC(N)=NCCCCC(=O)*; NMeL = CN[C@@H](CC(C)C)C(=O)O; Leu(ol) = CC(C)C[C@H](N)CO; X1 = CC(C)C[C@@H](CO)N(C)*

System: Sprague-Dawley (SD) rats
Experiment: Vascular permeability acceleration suppression action (hot-water leg edema)
Assay type: in vivo, rat
Details: for vascular permeability acceleration suppression action (in words): hot-water leg edema, SD rats; for Suppression Rate (%): suppression of rate of increase in leg volume vs control, 1 ml/kg into femoral vein 10 minutes before dipping leg in 58° C. hot water for one minute, male SD rats
Procedure: After 6-week male Sprague-Dawley (SD) rats (each group consisted of 10 rats) were fed for a week, they were used in this experiment.
The concentrations of samples of the hexapeptides (peptide Nos. 1 to 30) were dissolved by an acetic acid buffer solution added with a 1% bovine serum albumin (BSA).
An aliqrot of 1 ml/kg of each of the peptides Nos. 1 to 30 was injected into the femoral vein of the right leg of each rat anesthetized with 50 mg/kg of Nembutal Sodium (available from Dainippon Pharmaceutical Co., Ltd.). After 10 minutes, the nontreated left leg of the rat was dipped in 58° C. hot water for one minute to form an edema. Each rat was left at room temperature for 29 minutes, and the volumes of both legs of each rat were measured. As a control, the experiment following the same procedure as describe above was performed except that 1 ml/kg of a sodium acetate buffered solution containing 1% BSA instead of the hexapeptide of the present invention was injected in rats.
A rate (%) of increase in leg volume was calculated from the result of the above measurement by equation (1) below: [formula]
The rates were compared with that of the control.
- X: rate of increase in leg volume (%) of the present invention.
Xo: rate of increase in leg volume (%) of the control

| Molecule | vascular permeability acceleration suppression action (in words) | Suppression Rate (%) |
| --- | --- | --- |
| CC[C@H](C)[C@H](NC(=O)[C@H](Cc1c[nH]c2ccccc12)NC(=O)[C@@H]1CCCN1C(=O)[C@@H](CCCCN)NC(=O)CCCCNC(=N)N)C(=O)N[C@@H](CC(C)C)C(=O)O [Peptide No. 7, Desamino-Arg-D-Lys--Pro--Trp--Ile--Leu--OH] ({Pentanoyl(5-guanidino)}-[dK]PWIL-OH) | confirmed to have a vascular permeability acceleration suppression action and could suppress edemata | 54.6 |
| CC[C@H](C)[C@H](NC(=O)[C@@H](Cc1c[nH]c2ccccc12)NC(=O)[C@@H]1CCCN1C(=O)[C@H](CCCNC(=N)N)NC(=O)CCCCNC(=N)N)C(=O)N[C@H](CO)CC(C)C [Peptide No. 25, Desamino-Arg--Arg--Pro-D-Trp--Ile-Leucinol] ({Pentanoyl(5-guanidino)}-RP[dW]I[Leu(ol)]) | confirmed to have a vascular permeability acceleration suppression action and could suppress edemata | 19.6 |
| CCOC(=O)[C@H](CC(C)C)N(C)C(=O)[C@@H](NC(=O)[C@H](Cc1ccc(O)cc1)NC(=O)[C@@H]1CCCN1C(=O)[C@@H](CCCCN)NC(=O)CCCCNC(=N)N)[C@@H](C)CC [Peptide No. 18, Desamino-Arg-D-Lys--Pro--Tyr--Ile--(NCH3)Leu--OEt] ({Pentanoyl(5-guanidino)}-[dK]PYI[NMeL]-OEt) | confirmed to have a vascular permeability acceleration suppression action and could suppress edemata | 18.2 |
| Desamino-Arg-D-Lys--Pro--Trp--Ile-Leucinol [Peptide No. 23] | confirmed to have a vascular permeability acceleration suppression action and could suppress edemata | – |
| CCOC(=O)[C@H](CC(C)C)N(C)C(=O)[C@@H](NC(=O)[C@H](Cc1c[nH]c2ccccc12)NC(=O)[C@@H]1CCCN1C(=O)[C@H](CCCNC(=N)N)NC(=O)CCCCNC(=N)N)[C@@H](C)CC [Peptide No. 19, Desamino-Arg--Arg--Pro--Trp--Ile--(NCH3)Leu--OEt] ({Pentanoyl(5-guanidino)}-RPWI[NMeL]-OEt) | confirmed to have a vascular permeability acceleration suppression action and could suppress edemata | 20.8 |
| CCOC(=O)[C@H](CC(C)C)NC(=O)[C@@H](NC(=O)[C@H](Cc1ccc(O)cc1)NC(=O)[C@@H]1CCCN1C(=O)[C@@H](CCCNC(=N)N)NC(=O)CCCCNC(=N)N)[C@@H](C)CC [Peptide No. 12, Desamino-Arg-D-Arg--Pro--Tyr--Ile--Leu--OEt] | confirmed to have a vascular permeability acceleration suppression action and could suppress edemata | 20.4 |
| CC[C@H](C)[C@H](NC(=O)[C@@H](Cc1c[nH]c2ccccc12)NC(=O)[C@@H]1CCCN1C(=O)[C@H](CCCNC(=N)N)NC(=O)CCCCNC(=N)N)C(=O)N[C@@H](CC(C)C)C(=O)O [Peptide No. 5, Desamino-Arg--Arg--Pro-D-Trp--Ile--Leu--OH] ({Pentanoyl(5-guanidino)}-RP[dW]IL-OH) | confirmed to have a vascular permeability acceleration suppression action and could suppress edemata | 61.4 |
| CC[C@H](C)[C@H](NC(=O)[C@H](Cc1c[nH]c2ccccc12)NC(=O)[C@@H]1CCCN1C(=O)[C@H](CCCNC(=N)N)NC(=O)CCCCNC(=N)N)C(=O)N[C@H](CO)CC(C)C [Peptide No. 24, Desamino-Arg--Arg--Pro--Trp--Ile-Leucinol] ({Pentanoyl(5-guanidino)}-RPWI[Leu(ol)]) | confirmed to have a vascular permeability acceleration suppression action and could suppress edemata | 24.1 |
| CC[C@H](C)[C@H](NC(=O)[C@H](Cc1c[nH]c2ccccc12)NC(=O)[C@@H]1CCCN1C(=O)[C@H](CCCNC(=N)N)NC(=O)CCCCNC(=N)N)C(=O)N(C)[C@@H](CC(C)C)C(=O)O [Peptide No. 9, Desamino-Arg--Arg--Pro--Trp--Ile--(NCH3)Leu--OH] ({Pentanoyl(5-guanidino)}-RPWI[NMeL]-OH) | confirmed to have a vascular permeability acceleration suppression action and could suppress edemata | 59.4 |
| CCOC(=O)[C@H](CC(C)C)NC(=O)[C@@H](NC(=O)[C@H](Cc1ccc(O)cc1)NC(=O)[C@@H]1CCCN1C(=O)[C@@H](CCCCN)NC(=O)CCCCNC(=N)N)[C@@H](C)CC [Peptide No. 13, Desamino-Arg-D-Lys--Pro--Tyr--Ile--Leu--OEt] ({Pentanoyl(5-guanidino)}-[dK]PYIL-OEt) | confirmed to have a vascular permeability acceleration suppression action and could suppress edemata | 19.6 |
| CC[C@H](C)[C@H](NC(=O)[C@H](Cc1c[nH]c2ccccc12)NC(=O)[C@@H]1CCCN1C(=O)[C@H](CCCNC(=N)N)NC(=O)CCCCNC(=N)N)C(=O)N[C@@H](CC(C)C)C(=O)O [Peptide No. 4, Desamino-Arg--Arg--Pro--Trp--Ile--Leu--OH] ({Pentanoyl(5-guanidino)}-RPWIL-OH) | confirmed to have a vascular permeability acceleration suppression action and could suppress edemata | 66.3 |
| CCOC(=O)[C@H](CC(C)C)NC(=O)[C@@H](NC(=O)[C@@H](Cc1c[nH]c2ccccc12)NC(=O)[C@@H]1CCCN1C(=O)[C@H](CCCNC(=N)N)NC(=O)CCCCNC(=N)N)[C@@H](C)CC [Peptide No. 15, Desamino-Arg--Arg--Pro-D-Trp--Ile--Leu--OEt] ({Pentanoyl(5-guanidino)}-RP[dW]IL-OEt) | confirmed to have a vascular permeability acceleration suppression action and could suppress edemata | 14.2 |
| CCOC(=O)[C@H](CC(C)C)N(C)C(=O)[C@@H](NC(=O)[C@H](Cc1ccc(O)cc1)NC(=O)[C@@H]1CCCN1C(=O)[C@H](CCCNC(=N)N)NC(=O)CCCCNC(=N)N)[C@@H](C)CC [Peptide No. 16, Desamino-Arg--Arg--Pro--Tyr--Ile--(NCH3)Leu--OEt] | confirmed to have a vascular permeability acceleration suppression action and could suppress edemata | 19.1 |
| CC[C@H](C)[C@H](NC(=O)[C@H](Cc1ccc(O)cc1)NC(=O)[C@@H]1CCCN1C(=O)[C@@H](CCCCN)NC(=O)CCCCNC(=N)N)C(=O)N(C)[C@H](CO)CC(C)C [Peptide No. 28, Desamino-Arg-D-Lys--Pro--Tyr--Ile--(NCH3)Leucinol] ({Pentanoyl(5-guanidino)}-[dK]PYI-X1) | confirmed to have a vascular permeability acceleration suppression action and could suppress edemata | 15.4 |
